# Measured values from the supplement of paper PMC8728848.
# The other results are listed elsewhere or left out.
# B1: MMR (Homo sapiens), P22897 (protein)
# chain: MRLPLLLVFASVIPGAVLLLDTRQFLIYNEDHKRCVDAVSPSAVQTAACNQDAESQKFRWVSESQIMSVAFKLCLGVPSKTDWVAITLYACDSKSEFQKWECKNDTLLGIKGEDLFFNYGNRQEKNIMLYKGSGLWSRWKIYGTTDNLCSRGYEAMYTLLGNANGATCAFPFKFENKWYADCTSAGRSDGWLWCGTTTDYDTDKLFGYCPLKFEGSESLWNKDPLTSVSYQINSKSALTWHQARKSCQQQNAELLSITEIHEQTYLTGLTSSLTSGLWIGLNSLSFNSGWQWSDRSPFRYLNWLPGSPSAEPGKSCVSLNPGKNAKWENLECVQKLGYICKKGNTTLNSFVIPSESDVPTHCPSQWWPYAGHCYKIHRDEKKIQRDALTTCRKEGGDLTSIHTIEELDFIISQLGYEPNDELWIGLNDIKIQMYFEWSDGTPVTFTKWLRGEPSHENNRQEDCVVMKGKDGYWADRGCEWPLGYICKMKSRSQGPEIVEVEKGCRKGWKKHHFYCYMIGHTLSTFAEANQTCNNENAYLTTIEDRYEQAFLTSFVGLRPEKYFWTGLSDIQTKGTFQWTIEEEVRFTHWNSDMPGRKPGCVAMRTGIAGGLWDVLKCDEKAKFVCKHWAEGVTHPPKPTTTPEPKCPEDWGASSRTSLCFKLYAKGKHEKKTWFESRDFCRALGGDLASINNKEEQQTIWRLITASGSYHKLFWLGLTYGSPSEGFTWSDGSPVSYENWAYGEPNNYQNVEYCGELKGDPTMSWNDINCEHLNNWICQIQKGQTPKPEPTPAPQDNPPVTEDGWVIYKDYQYYFSKEKETMDNARAFCKRNFGDLVSIQSESEKKFLWKYVNRNDAQSAYFIGLLISLDKKFAWMDGSKVDYVSWATGEPNFANEDENCVTMYSNSGFWNDINCGYPNAFICQRHNSSINATTVMPTMPSVPSGCKEGWNFYSNKCFKIFGFMEEERKNWQEARKACIGFGGNLVSIQNEKEQAFLTYHMKDSTFSAWTGLNDVNSEHTFLWTDGRGVHYTNWGKGYPGGRRSSLSYEDADCVVIIGGASNEAGKWMDDTCDSKRGYICQTRSDPSLTNPPATIQTDGFVKYGKSSYSLMRQKFQWHEAETYCKLHNSLIASILDPYSNAFAWLQMETSNERVWIALNSNLTDNQYTWTDKWRVRYTNWAADEPKLKSACVYLDLDGYWKTAHCNESFYFLCKRSDEIPATEPPQLPGRCPESDHTAWIPFHGHCYYIESSYTRNWGQASLECLRMGSSLVSIESAAESSFLSYRVEPLKSKTNFWIGLFRNVEGTWLWINNSPVSFVNWNTGDPSGERNDCVALHASSGFWSNIHCSSYKGYICKRPKIIDAKPTHELLTTKADTRKMDPSKPSSNVAGVVIIVILLILTGAGLAAYFFYKKRRVHLPQEGAFENTLYFNSQSSPGTSDMKDLVGNIEQNEHSVI
# Tests used:
# Test in all cases: glycan array binding signal (z-score within array); higher = stronger binding
# Conditions in all cases: glycan notation: IUPAC condensed, linker removed
# [1] = target: Fuc(a1-3)[Gal(b1-4)]GlcNAc
# How it was run: (§1)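 Glycan array data came from 3228 arrays in the Consortium for Functional Glycomics database, and only arrays with an available protein sequence were kept. Glycan names were put into IUPAC-condensed notation, and columns mapping to the same glycan were averaged. The binding signal is a within-array Z-score, averaged across arrays of one protein sequence run at different concentrations or buffers and across linkers. A negative Z-score can be read as non-binding.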
# [2] = target: Fuc(a1-3)[Gal(b1-4)]GlcNAc(b1-4)Gal(b1-4)[Fuc(a1-3)]GlcNAc
# How it was run: as §1
# [3] = target: Fuc(a1-3)[Gal(b1-4)]GlcNAc(b1-4)Gal(b1-4)[Fuc(a1-3)]GlcNAc(b1-4)Gal(b1-4)[Fuc(a1-3)]GlcNAc
# How it was run: as §1
# [4] = target: Fuc(a1-3)[Gal3S(b1-4)]GlcNAc
# How it was run: as §1
# [5] = target: Fuc(a1-3)[GalNAc(b1-4)]GlcNAc
# How it was run: as §1
# Fuc(a1-4)GlcNAc = target: Fuc(a1-4)GlcNAc
# How it was run: as §1
# Fuc(b1-3)GlcNAc = target: Fuc(b1-3)GlcNAc
# How it was run: as §1
# Gal(a1-2)Gal = target: Gal(a1-2)Gal
# How it was run: as §1
# Gal(a1-3)Gal = target: Gal(a1-3)Gal
# How it was run: as §1
# Gal(a1-3)Gal(b1-3)GlcNAc = target: Gal(a1-3)Gal(b1-3)GlcNAc
# How it was run: as §1
# Gal(a1-3)Gal(b1-4)Glc = target: Gal(a1-3)Gal(b1-4)Glc
# How it was run: as §1
# Gal(a1-3)Gal(b1-4)GlcNAc = target: Gal(a1-3)Gal(b1-4)GlcNAc
# How it was run: as §1
# [6] = target: Gal(a1-3)Gal(b1-4)[Fuc(a1-3)]GlcNAc
# How it was run: as §1
# Gal(a1-3)GalNAc = target: Gal(a1-3)GalNAc
# How it was run: as §1
# [7] = target: Gal(a1-3)[Gal(a1-4)]Gal(b1-4)GlcNAc
# How it was run: as §1
# Gal(a1-4)Gal(b1-4)Glc = target: Gal(a1-4)Gal(b1-4)Glc
# How it was run: as §1
# Gal(a1-4)Gal(b1-4)GlcNAc = target: Gal(a1-4)Gal(b1-4)GlcNAc
# How it was run: as §1
# Gal(a1-4)GlcNAc = target: Gal(a1-4)GlcNAc
# How it was run: as §1
# Gal(a1-6)Glc = target: Gal(a1-6)Glc
# How it was run: as §1
# Gal(b1-2)Gal = target: Gal(b1-2)Gal
# How it was run: as §1
# Gal(b1-3)Gal = target: Gal(b1-3)Gal
# How it was run: as §1
# Gal(b1-3)GalNAc = target: Gal(b1-3)GalNAc
# How it was run: as §1
# [8] = target: Gal(b1-3)GalNAc(b1-3)Gal(a1-4)Gal(b1-4)Glc
# How it was run: as §1
# [9] = target: Gal(b1-3)GalNAc(b1-4)Gal(b1-4)Glc
# How it was run: as §1
# [10] = target: Gal(b1-3)GalNAc(b1-4)[Neu5Ac(a2-3)]Gal(b1-4)Glc
# How it was run: as §1
# Gal(b1-3)GlcNAc = target: Gal(b1-3)GlcNAc
# How it was run: as §1
# [11] = target: Gal(b1-3)GlcNAc(b1-3)Gal(b1-4)Glc
# How it was run: as §1
# [12] = target: Gal(b1-3)GlcNAc(b1-3)Gal(b1-4)GlcNAc
# How it was run: as §1
# [13] = target: Gal(b1-3)[Fuc(a1-4)]GlcNAc
# How it was run: as §1
# [14] = target: Gal(b1-3)[Fuc(a1-4)]GlcNAc(b1-3)Gal(b1-4)GlcNAc
# How it was run: as §1
# [15] = target: Gal(b1-3)[Fuc(a1-4)]GlcNAc(b1-3)Gal(b1-4)[Fuc(a1-3)]GlcNAc
# How it was run: as §1
# [16] = target: Gal(b1-3)[GlcNAc(b1-6)]GalNAc
# How it was run: as §1
# [17] = target: Gal(b1-3)[Neu5Ac(a2-6)]GalNAc
# How it was run: as §1
# [18] = target: Gal(b1-3)[Neu5Ac(a2-6)]GlcNAc(b1-6)Gal(b1-4)Glc
# How it was run: as §1
# [19] = target: Gal(b1-3)[Neu5Ac(b2-6)]GalNAc
# How it was run: as §1
# [20] = target: Gal(b1-4)GalNAc(a1-3)[Fuc(a1-2)]Gal(b1-4)GlcNAc
# How it was run: as §1
# [21] = target: Gal(b1-4)GalNAc(b1-3)[Fuc(a1-2)]Gal(b1-4)GlcNAc
# How it was run: as §1
# Gal(b1-4)Glc = target: Gal(b1-4)Glc
# How it was run: as §1
# Gal(b1-4)Glc6S = target: Gal(b1-4)Glc6S
# How it was run: as §1
# Gal(b1-4)GlcNAc = target: Gal(b1-4)GlcNAc
# How it was run: as §1
# [22] = target: Gal(b1-4)GlcNAc(b1-2)Man(a1-3)[Gal(b1-4)GlcNAc(b1-2)Man(a1-6)]Man(b1-4)GlcNAc(b1-4)GlcNAc
# How it was run: as §1
# [23] = target: Gal(b1-4)GlcNAc(b1-3)Gal(b1-4)Glc
# How it was run: as §1
# [24] = target: Gal(b1-4)GlcNAc(b1-3)Gal(b1-4)GlcNAc
# How it was run: as §1
# [25] = target: Gal(b1-4)GlcNAc(b1-3)Gal(b1-4)GlcNAc(b1-3)Gal(b1-4)GlcNAc
# How it was run: as §1
# [26] = target: Gal(b1-4)GlcNAc(b1-3)Gal(b1-4)[Fuc(a1-3)]GlcNAc(b1-3)Gal(b1-4)[Fuc(a1-3)]GlcNAc
# How it was run: as §1
binder,measurement,setting,value
B1,glycan array binding signal (z-score),[1],-0.427
same,glycan array binding signal (z-score),[2],0.036
same,glycan array binding signal (z-score),[3],-0.405
same,glycan array binding signal (z-score),[4],2.96
same,glycan array binding signal (z-score),[5],-0.4
same,glycan array binding signal (z-score),Fuc(a1-4)GlcNAc,-0.416
same,glycan array binding signal (z-score),Fuc(b1-3)GlcNAc,-0.438
same,glycan array binding signal (z-score),Gal(a1-2)Gal,-0.425
same,glycan array binding signal (z-score),Gal(a1-3)Gal,-0.396
same,glycan array binding signal (z-score),Gal(a1-3)Gal(b1-3)GlcNAc,-0.433
same,glycan array binding signal (z-score),Gal(a1-3)Gal(b1-4)Glc,-0.425
same,glycan array binding signal (z-score),Gal(a1-3)Gal(b1-4)GlcNAc,-0.44
same,glycan array binding signal (z-score),[6],-0.4
same,glycan array binding signal (z-score),Gal(a1-3)GalNAc,-0.441
same,glycan array binding signal (z-score),[7],-0.452
same,glycan array binding signal (z-score),Gal(a1-4)Gal(b1-4)Glc,-0.228
same,glycan array binding signal (z-score),Gal(a1-4)Gal(b1-4)GlcNAc,-0.43
same,glycan array binding signal (z-score),Gal(a1-4)GlcNAc,-0.437
same,glycan array binding signal (z-score),Gal(a1-6)Glc,-0.364
same,glycan array binding signal (z-score),Gal(b1-2)Gal,-0.42
same,glycan array binding signal (z-score),Gal(b1-3)Gal,-0.41
same,glycan array binding signal (z-score),Gal(b1-3)GalNAc,-0.441
same,glycan array binding signal (z-score),[8],-0.345
same,glycan array binding signal (z-score),[9],-0.399
same,glycan array binding signal (z-score),[10],-0.424
same,glycan array binding signal (z-score),Gal(b1-3)GlcNAc,-0.43
same,glycan array binding signal (z-score),[11],-0.419
same,glycan array binding signal (z-score),[12],-0.371
same,glycan array binding signal (z-score),[13],-0.375
same,glycan array binding signal (z-score),[14],-0.367
same,glycan array binding signal (z-score),[15],-0.37
same,glycan array binding signal (z-score),[16],-0.434
same,glycan array binding signal (z-score),[17],-0.404
same,glycan array binding signal (z-score),[18],-0.433
same,glycan array binding signal (z-score),[19],-0.418
same,glycan array binding signal (z-score),[20],-0.343
same,glycan array binding signal (z-score),[21],-0.406
same,glycan array binding signal (z-score),Gal(b1-4)Glc,-0.419
same,glycan array binding signal (z-score),Gal(b1-4)Glc6S,-0.34
same,glycan array binding signal (z-score),Gal(b1-4)GlcNAc,-0.431
same,glycan array binding signal (z-score),[22],-0.445
same,glycan array binding signal (z-score),[23],-0.427
same,glycan array binding signal (z-score),[24],-0.424
same,glycan array binding signal (z-score),[25],-0.466
same,glycan array binding signal (z-score),[26],0.283
